Publication PMC4336329 (PLoS ONE, 2015)
Hit rate of the full screen: of about 310,000 compounds, about 2,200 (0.71%) showed an effect of 50% or more. The effect is printed as a negative number. This is one part of the list.

Target: human ether-à-go-go-related gene (hERG) potassium channel (human, UniProt Q12809)
Assay: primary screen, population patch clamp on CHO cells stably expressing hERG

human ether-à-go-go-related gene (hERG) potassium channel, sequence (Q12809 whole entry, looked up): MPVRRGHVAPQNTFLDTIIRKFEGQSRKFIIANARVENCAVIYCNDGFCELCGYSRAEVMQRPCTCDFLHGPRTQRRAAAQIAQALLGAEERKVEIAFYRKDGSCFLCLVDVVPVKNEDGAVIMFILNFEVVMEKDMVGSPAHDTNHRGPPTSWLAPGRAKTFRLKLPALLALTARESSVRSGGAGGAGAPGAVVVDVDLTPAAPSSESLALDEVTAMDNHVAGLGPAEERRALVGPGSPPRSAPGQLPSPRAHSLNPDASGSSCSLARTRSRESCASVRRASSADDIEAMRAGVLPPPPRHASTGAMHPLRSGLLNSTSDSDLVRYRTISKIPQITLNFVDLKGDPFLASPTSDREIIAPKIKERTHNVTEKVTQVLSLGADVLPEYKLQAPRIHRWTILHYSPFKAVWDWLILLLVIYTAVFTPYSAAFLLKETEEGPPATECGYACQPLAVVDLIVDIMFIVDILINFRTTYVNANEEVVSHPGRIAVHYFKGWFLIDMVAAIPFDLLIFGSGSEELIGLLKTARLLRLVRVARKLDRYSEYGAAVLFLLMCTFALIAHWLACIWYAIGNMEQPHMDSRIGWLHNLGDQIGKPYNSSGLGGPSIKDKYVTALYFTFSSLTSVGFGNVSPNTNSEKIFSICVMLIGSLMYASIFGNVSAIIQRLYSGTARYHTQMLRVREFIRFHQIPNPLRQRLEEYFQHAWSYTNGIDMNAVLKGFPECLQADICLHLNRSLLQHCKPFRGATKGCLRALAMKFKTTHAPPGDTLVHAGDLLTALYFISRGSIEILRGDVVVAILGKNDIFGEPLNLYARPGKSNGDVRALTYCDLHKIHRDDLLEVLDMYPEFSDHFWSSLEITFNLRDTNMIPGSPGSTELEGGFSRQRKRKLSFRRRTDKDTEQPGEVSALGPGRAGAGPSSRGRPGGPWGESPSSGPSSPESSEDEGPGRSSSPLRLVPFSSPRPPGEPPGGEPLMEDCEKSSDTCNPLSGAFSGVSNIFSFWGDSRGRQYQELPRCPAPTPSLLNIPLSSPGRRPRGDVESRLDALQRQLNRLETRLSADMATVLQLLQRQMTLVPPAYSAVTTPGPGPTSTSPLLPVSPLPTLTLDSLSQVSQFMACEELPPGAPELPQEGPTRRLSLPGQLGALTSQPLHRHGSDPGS

Compound	hERG current change (%, negative = inhibition) at 1uM [%]
Nc1nc(-c2ccc(Cl)cc2)nc(-c2ccc(Cl)cc2)n1	6.44
CN(CCOc1ccccc1)Cc1nc2cc(Cl)ccc2c(=O)[nH]1	0.553
NNC(=O)CCc1c[nH]c2ccccc12	22.1
CSc1nc(N2CCOCC2)c2c3c(sc2n1)CCCC3	13.6
Cc1cc(=O)[nH]c(SCn2nnc3ccccc3c2=O)n1	3.07
COC(=O)c1ccccc1C(=O)N(Cc1cccnc1)CC1CCCN(C2CCCCC2)C1 (centres unmarked)	-7.49
CCOc1ccccc1C1CC(=O)Nc2cc(OC)c(OC)c(OC)c21 (centres unmarked)	15
CNC(=O)COC(=O)CCC(=O)c1ccc(Cl)cc1	14.8
Cn1c2ccccc2n2c(=O)c(Cl)c(-c3ccccc3)c(C#N)c12	10
N#CCCN1CCn2c1nc1ccccc12	16.7
COc1cc(C(=O)NCCc2cn3ccccc3n2)cc(OC)c1OC	8.52
COc1ccc(-n2c(-c3ccc(Br)cc3)c[n+]3c2CCc2ccccc2-3)cc1.[Br-]	-90.6
CC(OC(=O)c1cccc(S(=O)(=O)N2CCOCC2)c1)C(=O)NC1CCCCC1C (centres unmarked)	7.75
CCC(C)N1CC(C(=O)NC2CCCCC2)CC1=O (centres unmarked)	7.1
OCCOCCn1c(-c2ccccc2)nc(=S)c2c1CCCC2	9.77
CC(C)(C)OC(=O)N/N=C/c1ccc(C(=O)O)cc1	13.8
Cc1ccccc1OCC(=O)Nc1nnc(C2CCCCC2)s1	12.7
COc1cccc(NC(=O)c2cc3ccccc3oc2=O)c1	15.2
CC(C(=O)Nc1ccc(F)c(F)c1F)N1CCCCCC1 (centres unmarked)	11.1
CCOc1c(C)cnc2c1c(=O)n(Cc1ccccc1F)c(=O)n2C	9.06
CCOc1cc(C2C3=C(CC(C)(C)CC3=O)N(CCOC)C3=C2C(=O)CC(C)(C)C3)ccc1O	10.6
COc1cccc(C(=O)NNc2c3ccccc3nc3ccccc23)c1	13.1
Cc1cc(-c2c(C)n([O-])c(C)c(C)[n+]2=O)ccc1F	6.88

Compound	hERG current change (%, negative = inhibition) at 1uM [%]
NS(=O)(=O)c1ccc(CCNC(=O)c2ccc(NC3=NC4CS(=O)(=O)CC4S3)cc2)cc1 (centres unmarked)	8.41
N#Cc1cc(NC2CCCC2)c([N+](=O)[O-])cc1C#N	11.4
CCn1c(SCC(=O)Nc2ccc(NC(=O)c3cccs3)cc2)nnc1-c1cccnc1	5.51
Cc1cc(C(=O)OCC(=O)NCc2ccc(Cl)cc2)c(C)o1	8.52
O=C(NNC(=O)c1cc(Br)ccc1O)c1csc(N2CCOCC2)n1	-1.7
CCNc1nc(NCC)nc(C(=O)NN)n1	8.33
COc1ccc(Br)cc1CNC(=O)C1CCC(=O)N1C(C)C (centres unmarked)	0.907
CCn1c(SCC(=O)N2CCCCC2)nc(O)cc1=O	-0.348
O=C1N=C(N2CCOCC2)SC1=C1CCCCC1	2.3
CC1CN(C(=O)c2cc(COc3c(F)cccc3F)on2)CCN1C (centres unmarked)	15.3
CN(Cc1ccno1)Cc1cn(Cc2ccccc2)nc1-c1ccc2c(c1)OCO2	2.29
CCOC(=O)c1ccc(NC(=O)c2nc[nH]c2C(=O)N(CC)CC)cc1	6.08
CCOC(=O)c1sc2nc(CC(=O)OC)nc(NCCN(CC)CC)c2c1C	-42.2
C=CCN(CC=C)Cc1c(C)[nH]c2ccc(C(=O)OCC)cc2c1=O	-5.67
CC1(C)CC(=O)c2sc(NC(=O)c3ccco3)nc2C1	14.4
CCCc1cc(C(=O)Cc2nc3ccccc3s2)c(O)cc1O	-3.42
CC(C)(C)n1nc2c(c1NC(=O)COc1ccc(Cl)cc1)CS(=O)(=O)C2	-18
CCOC(=O)c1c(NC(=O)C(C)N2CCN(S(=O)(=O)c3cccs3)CC2)sc2c1CCC(C)C2 (centres unmarked)	7.27
CCOc1ccc(N2C(=O)NC(=O)/C(=C\c3ccc(N4CCOCC4)cc3C)C2=O)cc1	3.16
CC[n+]1c(/C=C2\C=C(C)CC(C)(C)C2)sc2ccccc21.[I-]	-4.87
CC1CCN(C(=O)CN2C(=O)c3ccccc3S2(=O)=O)CC1	9.21
CC12CC3CC(C)(C1)CC(N)(C3)C2.Cl	18
Cc1cc(C)n(CC(O)CN(c2ccccc2)S(=O)(=O)c2ccccc2)n1 (centres unmarked)	11.4

Compound	hERG current change (%, negative = inhibition) at 1uM [%]
Cc1csc(NC(=O)CSc2nnc(-c3ccc(S(=O)(=O)N4CCCC4)cc3)o2)n1	1.05
CC(=O)Nc1ccc(S(=O)(=O)NCCC(=O)OCc2ccc([N+](=O)[O-])cc2)cc1	-16.8
CC(=O)Nc1ccc(NC(=S)NC(=O)c2oc3ccccc3c2C)cc1	15.3
COc1cccc(NC(=O)CNC(=O)Cn2cnc3sc(C)c(C)c3c2=O)c1	17.7
CN1CCN(C(=O)c2ccc3c(=O)n(Cc4ccc(Cl)cc4)c(=S)[nH]c3c2)CC1	0.71
CC(C)NC(=O)CCn1nc(-c2ccc(Cl)cc2)c2ccccc2c1=O	14.5
CCN(C(=O)c1cc([N+](=O)[O-])ccc1NCc1cccnc1)c1ccccc1	8.03
Nc1ccc(C(O)(C(F)(F)F)C(F)(F)F)cc1	19
CCN1CCN(S(=O)(=O)c2ccc(OC)c(NC(=O)c3ccccc3F)c2)CC1	1.48
O=C1CCN(Cc2ccc(O)cc2)CCN1CCO	7.6
COC(=O)CC(c1ccc(F)cc1)n1c(C)ccc1C (centres unmarked)	10.3
O=C(Nc1ncccc1O)c1cccc(S(=O)(=O)NCc2ccccc2)c1	12.4
COc1ccc(S(=O)(=O)NCc2ccccc2)cc1Br	14.9
Oc1ccc(Nc2nc3ccccc3nc2Nc2ccc(O)cc2)cc1	17.3
O=C(c1cccc(F)c1)N1CCC2(CC1)NCCc1[nH]cnc12	16
CCOc1ccccc1NC(=O)CCS(=O)(=O)c1ccc2c(c1)CC(C)N2C(C)=O (centres unmarked)	13.9
COc1cc(C)nc(N2CCCC(C(=O)Nc3cccc(Cl)c3Cl)C2)n1 (centres unmarked)	5.35
Cc1ccccc1NC(=O)c1c(C)nc(SCC(=O)OCc2ccccc2)c(C#N)c1-c1ccc(F)cc1	3.46
COC(=O)c1ccc(NC(=O)[C@H](C)NC(N)=O)cc1	8.56
COc1cn(-c2ccccc2)nc1C(=O)NCc1ccc(C)cc1	11.2
COc1ccccc1C(=O)NCCCNC(=O)c1ccccn1	22.9
Cc1ccc(-c2nc3ccccc3nc2NN)cc1	15.8
COc1ccccc1CN1C[C@@H]2C[C@@H](C3=Cc4cccc(OC)c4OC3)N3CCC[C@@]23C1=O	14.2

Compound	hERG current change (%, negative = inhibition) at 1uM [%]
CC(=O)Nc1sc2c(c1C#N)CC(C)(C)NC2(C)C	17.2
C/C(=N/NC(=O)CNC(=O)Cc1ccccc1)c1ccc(Cl)cc1	11
Cc1occc1C(=O)NC(C)CCc1ccccc1 (centres unmarked)	7.56
CCN(CC(=O)Nc1c(F)cccc1F)C(=O)CC1CCCCC1	10.7
Cc1ccc(NC(=O)CCc2nnc3ccc(NCc4ccco4)nn23)nc1	12
COc1ccccc1CNC(=O)C1CCN(S(=O)(=O)c2ccc3nc4c(c(C(=O)O)c3c2)CCCC4)CC1	16.5
O=C(NCCCc1ccccc1)c1cccc(Br)c1	-3.58
CC(=O)c1cccc(N(C(=O)CNC(=O)c2ccco2)C(C(=O)NCc2ccco2)c2ccccc2)c1 (centres unmarked)	7.26
Cc1cc(C(C)(C)C)cc(S(=O)(=O)Nc2ccc(O)c(C(=O)O)c2)c1C	-3.91
COc1ccc(NC(=O)CCC(=O)Nc2nnc(C(C)C)s2)cc1Cl	15.3
CCN(CC)Cc1c(O)ccc2occ(C(=O)c3ccc(OC)cc3)c12	-64.2
COc1cccc(NC(=O)COc2cc(C)cc3oc(=O)cc(C)c23)c1	13.5
CN(C(=O)c1ccccc1[N+](=O)[O-])c1ccccc1C(=O)NCc1ccccc1	12.1
CCN(CC)CCCNC(=O)c1cc(Nc2ccc(OC)cc2OC)nc2ccccc12	0.441
O=C(Nc1cccc(NC(=O)c2ccco2)c1)c1ccc([N+](=O)[O-])cc1	30.8
Cc1ccc([N+](=O)[O-])cc1NC(=O)C(Sc1ccccc1)c1ccccc1 (centres unmarked)	14.3
O=C1C2C3c4ccccc4C(c4ccccc43)[C@@H]2c2nc3ccccc3n21 (some centres unmarked)	12
Cc1nc(SC2CC(=O)N(c3ccccc3)C2=O)nc2c1CCCC2 (centres unmarked)	-6.95
Cn1nccc1C(=O)N/N=C/c1cccnc1	-1.45
O=c1oc2ccc(Cl)cc2cc1-c1nnc(Nc2cccc(C(F)(F)F)c2)s1	13
